This is one part of the list.
How the values were obtained:
Experiment in all cases: glycan array binding signal (z-score within array); higher = stronger binding
Settings in all cases: glycan notation: IUPAC condensed, linker removed
[1] = target: Gal(b1-4)GlcNAc(b1-3)Gal(b1-3)GlcNAc
Summary of the method: (§1)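 The Consortium for Functional Glycomics database supplied 3228 glycan arrays, of which those lacking an available protein sequence were dropped. The binding signal, a within-array Z-score, was averaged across arrays of the same protein sequence and across linkers. Negative scores can be read as non-binding.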

[2] = target: Gal(b1-4)GlcNAc(b1-3)Gal(b1-4)Glc
Summary of the method: as §1

[3] = target: Gal(b1-4)GlcNAc(b1-3)Gal(b1-4)GlcNAc
Summary of the method: as §1

[4] = target: Gal(b1-4)GlcNAc(b1-3)Gal(b1-4)GlcNAc(b1-2)Man(a1-3)[Gal(b1-4)GlcNAc(b1-3)Gal(b1-4)GlcNAc(b1-2)Man(a1-6)]Man(b1-4)GlcNAc(b1-4)GlcNAc
Summary of the method: as §1

[5] = target: Gal(b1-4)GlcNAc(b1-3)Gal(b1-4)GlcNAc(b1-2)Man(a1-3)[Gal(b1-4)GlcNAc(b1-3)Gal(b1-4)GlcNAc(b1-2)Man(a1-6)]Man(b1-4)GlcNAc(b1-4)[Fuc(a1-6)]GlcNAc
Summary of the method: as §1

[6] = target: Gal(b1-4)GlcNAc(b1-3)Gal(b1-4)GlcNAc(b1-2)[Gal(b1-4)GlcNAc(b1-3)Gal(b1-4)GlcNAc(b1-6)]Man(a1-6)[Gal(b1-4)GlcNAc(b1-3)Gal(b1-4)GlcNAc(b1-2)Man(a1-3)]Man(b1-4)GlcNAc(b1-4)GlcNAc
Summary of the method: as §1

[7] = target: Gal(b1-4)GlcNAc(b1-3)Gal(b1-4)GlcNAc(b1-2)[Gal(b1-4)GlcNAc(b1-3)Gal(b1-4)GlcNAc(b1-6)]Man(a1-6)[Gal(b1-4)GlcNAc(b1-3)Gal(b1-4)GlcNAc(b1-2)Man(a1-3)]Man(b1-4)GlcNAc(b1-4)[Fuc(a1-6)]GlcNAc
Summary of the method: as §1

[8] = target: Gal(b1-4)GlcNAc(b1-3)Gal(b1-4)GlcNAc(b1-3)Gal(b1-4)GlcNAc
Summary of the method: as §1

[9] = target: Gal(b1-4)GlcNAc(b1-3)Gal(b1-4)GlcNAc(b1-3)Gal(b1-4)GlcNAc(b1-2)Man(a1-3)[Gal(b1-4)GlcNAc(b1-3)Gal(b1-4)GlcNAc(b1-3)Gal(b1-4)GlcNAc(b1-2)Man(a1-6)]Man(b1-4)GlcNAc(b1-4)GlcNAc
Summary of the method: as §1

[10] = target: Gal(b1-4)GlcNAc(b1-3)Gal(b1-4)GlcNAc(b1-3)Gal(b1-4)GlcNAc(b1-2)Man(a1-3)[Gal(b1-4)GlcNAc(b1-3)Gal(b1-4)GlcNAc(b1-3)Gal(b1-4)GlcNAc(b1-2)Man(a1-6)]Man(b1-4)GlcNAc(b1-4)[Fuc(a1-6)]GlcNAc
Summary of the method: as §1

[11] = target: Gal(b1-4)GlcNAc(b1-3)Gal(b1-4)GlcNAc(b1-3)Gal(b1-4)GlcNAc(b1-2)[Gal(b1-4)GlcNAc(b1-3)Gal(b1-4)GlcNAc(b1-3)Gal(b1-4)GlcNAc(b1-6)]Man(a1-6)[Gal(b1-4)GlcNAc(b1-3)Gal(b1-4)GlcNAc(b1-3)Gal(b1-4)GlcNAc(b1-2)Man(a1-3)]Man(b1-4)GlcNAc(b1-4)[Fuc(a1-6)]GlcNAc
Summary of the method: as §1

[12] = target: Gal(b1-4)GlcNAc(b1-3)Gal(b1-4)GlcNAc(b1-3)Gal(b1-4)GlcNAc(b1-3)Gal(b1-4)GlcNAc(b1-2)Man(a1-3)[Gal(b1-4)GlcNAc(b1-3)Gal(b1-4)GlcNAc(b1-3)Gal(b1-4)GlcNAc(b1-3)Gal(b1-4)GlcNAc(b1-2)Man(a1-6)]Man(b1-4)GlcNAc(b1-4)GlcNAc
Summary of the method: as §1

[13] = target: Gal(b1-4)GlcNAc(b1-3)Gal(b1-4)GlcNAc(b1-3)Gal(b1-4)GlcNAc(b1-3)Gal(b1-4)GlcNAc(b1-2)Man(a1-3)[Gal(b1-4)GlcNAc(b1-3)Gal(b1-4)GlcNAc(b1-3)Gal(b1-4)GlcNAc(b1-3)Gal(b1-4)GlcNAc(b1-2)Man(a1-6)]Man(b1-4)GlcNAc(b1-4)[Fuc(a1-6)]GlcNAc
Summary of the method: as §1

[14] = target: Gal(b1-4)GlcNAc(b1-3)Gal(b1-4)GlcNAc(b1-3)Gal(b1-4)GlcNAc(b1-3)Gal(b1-4)GlcNAc(b1-2)[Gal(b1-4)GlcNAc(b1-3)Gal(b1-4)GlcNAc(b1-3)Gal(b1-4)GlcNAc(b1-3)Gal(b1-4)GlcNAc(b1-6)]Man(a1-6)[Gal(b1-4)GlcNAc(b1-3)Gal(b1-4)GlcNAc(b1-3)Gal(b1-4)GlcNAc(b1-3)Gal(b1-4)GlcNAc(b1-2)Man(a1-3)]Man(b1-4)GlcNAc(b1-4)[Fuc(a1-6)]GlcNAc
Summary of the method: as §1

[15] = target: Gal(b1-4)GlcNAc(b1-3)Gal(b1-4)GlcNAc(b1-3)Gal(b1-4)GlcNAc(b1-3)Gal(b1-4)GlcNAc(b1-3)Gal(b1-4)GlcNAc(b1-2)Man(a1-3)[Gal(b1-4)GlcNAc(b1-3)Gal(b1-4)GlcNAc(b1-3)Gal(b1-4)GlcNAc(b1-3)Gal(b1-4)GlcNAc(b1-3)Gal(b1-4)GlcNAc(b1-2)Man(a1-6)]Man(b1-4)GlcNAc(b1-4)GlcNAc
Summary of the method: as §1

[16] = target: Gal(b1-4)GlcNAc(b1-3)Gal(b1-4)GlcNAc(b1-3)Gal(b1-4)GlcNAc(b1-3)Gal(b1-4)GlcNAc(b1-3)Gal(b1-4)GlcNAc(b1-2)Man(a1-3)[Gal(b1-4)GlcNAc(b1-3)Gal(b1-4)GlcNAc(b1-3)Gal(b1-4)GlcNAc(b1-3)Gal(b1-4)GlcNAc(b1-3)Gal(b1-4)GlcNAc(b1-2)Man(a1-6)]Man(b1-4)GlcNAc(b1-4)[Fuc(a1-6)]GlcNAc
Summary of the method: as §1

[17] = target: Gal(b1-4)GlcNAc(b1-3)Gal(b1-4)GlcNAc(b1-3)Gal(b1-4)GlcNAc(b1-3)Gal(b1-4)GlcNAc(b1-3)Gal(b1-4)GlcNAc(b1-2)[Gal(b1-4)GlcNAc(b1-3)Gal(b1-4)GlcNAc(b1-3)Gal(b1-4)GlcNAc(b1-3)Gal(b1-4)GlcNAc(b1-3)Gal(b1-4)GlcNAc(b1-6)]Man(a1-6)[Gal(b1-4)GlcNAc(b1-3)Gal(b1-4)GlcNAc(b1-3)Gal(b1-4)GlcNAc(b1-3)Gal(b1-4)GlcNAc(b1-3)Gal(b1-4)GlcNAc(b1-2)Man(a1-3)]Man(b1-4)GlcNAc(b1-4)[Fuc(a1-6)]GlcNAc
Summary of the method: as §1

[18] = target: Gal(b1-4)GlcNAc(b1-3)Gal(b1-4)GlcNAc(b1-3)Gal(b1-4)GlcNAc(b1-3)Gal(b1-4)GlcNAc(b1-3)Gal(b1-4)GlcNAc(b1-3)Gal(b1-4)GlcNAc(b1-2)Man(a1-3)[Gal(b1-4)GlcNAc(b1-3)Gal(b1-4)GlcNAc(b1-3)Gal(b1-4)GlcNAc(b1-3)Gal(b1-4)GlcNAc(b1-3)Gal(b1-4)GlcNAc(b1-3)Gal(b1-4)GlcNAc(b1-2)Man(a1-6)]Man(b1-4)GlcNAc(b1-4)GlcNAc
Summary of the method: as §1

[19] = target: Gal(b1-4)GlcNAc(b1-3)Gal(b1-4)GlcNAc(b1-3)GalNAc
Summary of the method: as §1

B1: Arath Fbox (Arabidopsis thaliana), NP_178341.1 (protein)
chain: EFTWGRKRRVKSESSPFDSFPEDCISYIISFTNPRDACVAATVSKTFESTVKSDIIWEKFLPADYESLIPPSRVFSSKKELYFSLCNDPVLFDDDKKSVWLEKASGKRCLMLSAMNLSIIWGDNPQYWQWIPIPESRFEKVAKLRDVCWFEIRGRTNTRVLSPRTRYSAYIVFKGVDKCYGFQNVAIEAAVGVVGQEPSRRLICFSEAIRRGRRNVVKPKQREDGWMEIELGEFFNDGGIMDNDEIEMSALETKQLNRKCGLIIQGIEIRPAKILAAAAASFLEQKLISEEDLNSAVDHHHHHH
- glycan array binding signal (z-score) [1]: -0.723
- glycan array binding signal (z-score) [2]: 0.103
- glycan array binding signal (z-score) [3]: -0.56
- glycan array binding signal (z-score) [4]: 0.358
- glycan array binding signal (z-score) [5]: 3.33
- glycan array binding signal (z-score) [6]: 2.73
- glycan array binding signal (z-score) [7]: 0.187
- glycan array binding signal (z-score) [8]: 1.28
- glycan array binding signal (z-score) [9]: 1.35
- glycan array binding signal (z-score) [10]: 0.569
- glycan array binding signal (z-score) [11]: 2.13
- glycan array binding signal (z-score) [12]: 0.763
- glycan array binding signal (z-score) [13]: 0.351
- glycan array binding signal (z-score) [14]: 2.36
- glycan array binding signal (z-score) [15]: 2.6
- glycan array binding signal (z-score) [16]: 1.63
- glycan array binding signal (z-score) [17]: 1.6
- glycan array binding signal (z-score) [18]: 1.32
- glycan array binding signal (z-score) [19]: 0.46
